The list shows a part of the results.
Legend:
Experiment in all cases: glycan array binding signal (z-score within array); higher = stronger binding
Conditions in all cases: glycan notation: IUPAC condensed, linker removed
Fuc(a1-2)Gal = molecular target: Fuc(a1-2)Gal
How it was run: (§1)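 Negative Z-scores can be read as non-binding. The Z-score is calculated within each array and then averaged across arrays of one protein sequence at different concentrations or buffers and across linkers. Arrays, 3228 in all, were curated from the Consortium for Functional Glycomics database and kept only where the protein sequence was available.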

Fuc(a1-2)Gal(b1-3)GalNAc = molecular target: Fuc(a1-2)Gal(b1-3)GalNAc
How it was run: as §1

[1] = molecular target: Fuc(a1-2)Gal(b1-3)GalNAc(a1-3)[Fuc(a1-2)]Gal(b1-4)Glc
How it was run: as §1

[2] = molecular target: Fuc(a1-2)Gal(b1-3)GalNAc(a1-3)[Fuc(a1-2)]Gal(b1-4)GlcNAc
How it was run: as §1

[3] = molecular target: Fuc(a1-2)Gal(b1-3)GalNAc(b1-3)Gal
How it was run: as §1

[4] = molecular target: Fuc(a1-2)Gal(b1-3)GalNAc(b1-3)Gal(a1-4)Gal(b1-4)Glc
How it was run: as §1

[5] = molecular target: Fuc(a1-2)Gal(b1-3)GalNAc(b1-4)[Neu5Ac(a2-3)]Gal(b1-4)Glc
How it was run: as §1

Fuc(a1-2)Gal(b1-3)GlcNAc = molecular target: Fuc(a1-2)Gal(b1-3)GlcNAc
How it was run: as §1

[6] = molecular target: Fuc(a1-2)Gal(b1-3)GlcNAc(b1-2)Man(a1-3)[Fuc(a1-2)Gal(b1-3)GlcNAc(b1-2)Man(a1-6)]Man(b1-4)GlcNAc(b1-4)GlcNAc
How it was run: as §1

[7] = molecular target: Fuc(a1-2)Gal(b1-3)GlcNAc(b1-3)Gal(b1-4)Glc
How it was run: as §1

[8] = molecular target: Fuc(a1-2)Gal(b1-3)GlcNAc(b1-3)[Fuc(a1-3)[Gal(b1-4)]GlcNAc(b1-6)]Gal(b1-4)Glc
How it was run: as §1

[9] = molecular target: Fuc(a1-2)Gal(b1-3)[Fuc(a1-4)]GlcNAc
How it was run: as §1

[10] = molecular target: Fuc(a1-2)Gal(b1-3)[Fuc(a1-4)]GlcNAc(b1-2)Man(a1-3)[Fuc(a1-2)Gal(b1-3)[Fuc(a1-4)]GlcNAc(b1-2)Man(a1-6)]Man(b1-4)GlcNAc(b1-4)GlcNAc
How it was run: as §1

[11] = molecular target: Fuc(a1-2)Gal(b1-3)[Fuc(a1-4)]GlcNAc(b1-3)[Fuc(a1-3)[Gal(b1-4)]GlcNAc(b1-6)]Gal(b1-4)Glc
How it was run: as §1

[12] = molecular target: Fuc(a1-2)Gal(b1-3)[Fuc(a1-4)]GlcNAc(b1-3)[Gal(b1-4)GlcNAc(b1-6)]Gal(b1-4)Glc
How it was run: as §1

Fuc(a1-2)Gal(b1-4)Glc = molecular target: Fuc(a1-2)Gal(b1-4)Glc
How it was run: as §1

Fuc(a1-2)Gal(b1-4)Glc6S = molecular target: Fuc(a1-2)Gal(b1-4)Glc6S
How it was run: as §1

Fuc(a1-2)Gal(b1-4)GlcNAc = molecular target: Fuc(a1-2)Gal(b1-4)GlcNAc
How it was run: as §1

[13] = molecular target: Fuc(a1-2)Gal(b1-4)GlcNAc(b1-2)Man(a1-3)[Fuc(a1-2)Gal(b1-4)GlcNAc(b1-2)Man(a1-6)]Man(b1-4)GlcNAc(b1-4)GlcNAc
How it was run: as §1

[14] = molecular target: Fuc(a1-2)Gal(b1-4)GlcNAc(b1-3)Gal(b1-4)GlcNAc
How it was run: as §1

[15] = molecular target: Fuc(a1-2)Gal(b1-4)GlcNAc(b1-3)Gal(b1-4)GlcNAc(b1-3)Gal(b1-4)GlcNAc
How it was run: as §1

[16] = molecular target: Fuc(a1-2)Gal(b1-4)GlcNAc(b1-3)GalNAc
How it was run: as §1

[17] = molecular target: Fuc(a1-2)Gal(b1-4)GlcNAc6S
How it was run: as §1

[18] = molecular target: Fuc(a1-2)Gal(b1-4)[Fuc(a1-3)]GlcNAc
How it was run: as §1

[19] = molecular target: Fuc(a1-2)Gal(b1-4)[Fuc(a1-3)]GlcNAc(b1-2)Man(a1-3)[Fuc(a1-2)Gal(b1-4)[Fuc(a1-3)]GlcNAc(b1-2)Man(a1-6)]Man(b1-4)GlcNAc(b1-4)GlcNAc
How it was run: as §1

[20] = molecular target: Fuc(a1-2)Gal(b1-4)[Fuc(a1-3)]GlcNAc(b1-3)Gal(b1-4)[Fuc(a1-3)]GlcNAc
How it was run: as §1

[21] = molecular target: Fuc(a1-2)Gal(b1-4)[Fuc(a1-3)]GlcNAc(b1-3)Gal(b1-4)[Fuc(a1-3)]GlcNAc(b1-3)Gal(b1-4)[Fuc(a1-3)]GlcNAc
How it was run: as §1

Fuc(a1-2)Gal6S(b1-4)Glc = molecular target: Fuc(a1-2)Gal6S(b1-4)Glc
How it was run: as §1

[22] = molecular target: Fuc(a1-2)Gal6S(b1-4)Glc6S
How it was run: as §1

[23] = molecular target: Fuc(a1-2)Gal6S(b1-4)GlcNAc
How it was run: as §1

B1: SLP (Clostridium difficile), Q183M8 (protein)
chain: MATTGTQGYTVVKNDWKKAVKQLQDGLKDNSIGKITVSFNDGVVGEVAPKSANKKADRDAAAEKLYNLVNTQLDKLGDGDYVDFSVDYNLENKIITNQADAEAIVTKLNSLNEKTLIDIATKDTFGMVSKTQDSEGKNVAATKALKVKDVATFGLKSGGSEDTGYVVEMKAGAVEDKYGKVGDSTAGIAINLPSTGLEYAGKGTTIDFNKTLKVDVTGGSTPSAVAVSGFVTKDDTDLAKSGTINVRVINAKEESIDIDASSYTSAENLAKRYVFDPDEISEAYKAIVALQNDGIESNLVQLVNGKYQVIFYPEGKRLETKSLEHHHHHH
**Q.** B1 was tested. Which “glycan array binding signal (z-score)” value (Fuc(a1-2)Gal) did it give?
**A.** Its value is -0.17.

**Q.** What about the “glycan array binding signal (z-score)” value (Fuc(a1-2)Gal(b1-3)GalNAc) of the same binder?
**A.** The value was -0.184.

**Q.** What about the “glycan array binding signal (z-score)” value [1] of the same binder?
**A.** Its value is -0.202.

**Q.** And the “glycan array binding signal (z-score)” value [2]?
**A.** Its value is -0.187.

**Q.** And the “glycan array binding signal (z-score)” value [3]?
**A.** Its value is 1.35.

**Q.** What about the “glycan array binding signal (z-score)” value [4] of the same binder?
**A.** The value was -0.199.

**Q.** And the “glycan array binding signal (z-score)” value [5]?
**A.** Its value is -0.17.

**Q.** And the “glycan array binding signal (z-score)” value (Fuc(a1-2)Gal(b1-3)GlcNAc)?
**A.** The value was -0.17.

**Q.** What about the “glycan array binding signal (z-score)” value [6] of the same binder?
**A.** The value was 0.556.

**Q.** And the “glycan array binding signal (z-score)” value [7]?
**A.** The value was 3.53.

**Q.** What about the “glycan array binding signal (z-score)” value [8] of the same binder?
**A.** Its value is -0.163.

**Q.** And the “glycan array binding signal (z-score)” value [9]?
**A.** Its value is -0.18.

**Q.** What about the “glycan array binding signal (z-score)” value [10] of the same binder?
**A.** Its value is 0.054.

**Q.** What about the “glycan array binding signal (z-score)” value [11] of the same binder?
**A.** Its value is -0.158.

**Q.** What about the “glycan array binding signal (z-score)” value [12] of the same binder?
**A.** Its value is -0.156.

**Q.** And the “glycan array binding signal (z-score)” value (Fuc(a1-2)Gal(b1-4)Glc)?
**A.** The value was -0.174.

**Q.** And the “glycan array binding signal (z-score)” value (Fuc(a1-2)Gal(b1-4)Glc6S)?
**A.** Its value is -0.166.

**Q.** And the “glycan array binding signal (z-score)” value (Fuc(a1-2)Gal(b1-4)GlcNAc)?
**A.** Its value is -0.198.

**Q.** What about the “glycan array binding signal (z-score)” value [13] of the same binder?
**A.** The value was 3.46.

**Q.** And the “glycan array binding signal (z-score)” value [14]?
**A.** The value was -0.199.

**Q.** And the “glycan array binding signal (z-score)” value [15]?
**A.** Its value is -0.176.

**Q.** What about the “glycan array binding signal (z-score)” value [16] of the same binder?
**A.** The value was -0.149.

**Q.** What about the “glycan array binding signal (z-score)” value [17] of the same binder?
**A.** The value was -0.199.

**Q.** What about the “glycan array binding signal (z-score)” value [18] of the same binder?
**A.** The value was -0.174.

**Q.** And the “glycan array binding signal (z-score)” value [19]?
**A.** The value was 0.044.

**Q.** What about the “glycan array binding signal (z-score)” value [20] of the same binder?
**A.** The value was -0.135.

**Q.** What about the “glycan array binding signal (z-score)” value [21] of the same binder?
**A.** The value was -0.112.

**Q.** And the “glycan array binding signal (z-score)” value (Fuc(a1-2)Gal6S(b1-4)Glc)?
**A.** The value was -0.165.

**Q.** What about the “glycan array binding signal (z-score)” value [22] of the same binder?
**A.** The value was -0.069.

**Q.** And the “glycan array binding signal (z-score)” value [23]?
**A.** Its value is -0.207.

— the supplement of paper PMC8728848
